Assay results: the supplement of paper PMC3334620
Over roughly 33,000 sequences, “E-score (-0.5 to 0.5)” has its median near -0.011; the highest 2% begin near 0.28. The list shows a part of the results.

Target: T1, Gcr1 (UniProt P07261)
T1 sequence: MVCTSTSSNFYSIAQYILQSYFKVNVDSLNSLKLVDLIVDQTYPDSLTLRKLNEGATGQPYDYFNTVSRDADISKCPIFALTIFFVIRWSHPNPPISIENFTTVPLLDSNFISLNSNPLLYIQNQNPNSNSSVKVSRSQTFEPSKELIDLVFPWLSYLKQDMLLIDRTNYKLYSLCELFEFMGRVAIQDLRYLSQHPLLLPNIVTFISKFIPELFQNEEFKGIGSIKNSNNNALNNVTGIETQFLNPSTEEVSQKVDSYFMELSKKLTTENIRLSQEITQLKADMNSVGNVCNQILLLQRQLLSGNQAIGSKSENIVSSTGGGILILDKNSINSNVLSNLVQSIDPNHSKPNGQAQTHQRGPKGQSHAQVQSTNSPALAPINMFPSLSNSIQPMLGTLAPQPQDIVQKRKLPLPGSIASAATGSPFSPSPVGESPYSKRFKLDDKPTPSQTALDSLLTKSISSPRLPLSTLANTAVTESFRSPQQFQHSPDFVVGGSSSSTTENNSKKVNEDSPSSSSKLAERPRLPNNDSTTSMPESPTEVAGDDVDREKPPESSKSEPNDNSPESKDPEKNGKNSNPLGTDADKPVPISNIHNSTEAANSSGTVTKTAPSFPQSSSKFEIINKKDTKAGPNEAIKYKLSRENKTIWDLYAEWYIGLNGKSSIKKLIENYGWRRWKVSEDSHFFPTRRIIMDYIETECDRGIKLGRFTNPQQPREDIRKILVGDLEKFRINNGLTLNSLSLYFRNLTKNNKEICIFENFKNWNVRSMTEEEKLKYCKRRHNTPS
Assay: PBM E-score (8-mer binding enrichment) (E-score (-0.5 to 0.5)); higher = stronger / more preferred TF binding; most listed sequences are background and not binding sites
Conditions: protein concentration: 100 nM; construct: GST-full length
Protocol: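 Universal 'all 10-mer' protein binding microarrays (Agilent AMADID 015681) probed with GST-tagged S. cerevisiae TFs (full-length or DBD) made by in vitro transcription/translation (PURExpress), about 100-200 nM. Bound TF was detected with fluorescent anti-GST. Each ungapped 8-mer (which stands for itself and its reverse complement) is scored by the PBM enrichment score (E-score), a modified Wilcoxon-Mann-Whitney statistic from -0.5 to +0.5, computed with the Universal PBM Analysis Suite. Scale: above 0.35 generally sequence-specific binding.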

| Sequence | PBM E-score |
| --- | --- |
| GTCGGTTA | -0.058 |
| GGGCGAAC | -0.0105 |
| CGGGCGAA | -0.213 |
| CACCGGAC | -0.0141 |
| ACATTGGC | -0.0383 |
| ACCGTCGT | -0.183 |
| CATCTTCC | 0.0808 |
| AACCATGA | -0.00643 |
| CAGGTTAC | -0.157 |
| CAGGATGG | -0.132 |
| TAGCGATA | -0.0939 |
| AGGCGAAA | -0.108 |
| CGGAGAGA | -0.0586 |
| ACACACTA | -0.057 |
| AAGGAAAC | -0.0301 |
| ACCCAGTG | -0.0145 |
| GACGGGAC | -0.151 |
| GAATCCAA | 0.309 |
| ATCCAACG | 0.06 |
| AATGCATT | -0.147 |
| CAACCGGA | 0.206 |
| CAATCTAG | 0.127 |
| AAGCCCAA | 0.141 |
| CACAGAGA | -0.0375 |
| GAATATTC | -0.0608 |

| Sequence | PBM E-score |
| --- | --- |
| GCGTGACC | -0.139 |
| CACTAACG | 0.00491 |
| CCTTCCTC | 0.022 |
| CGGTAAAA | 0.08 |
| GACCTGCC | -0.164 |
| AGTATTAC | 0.0553 |
| ACTCGGGA | 0.132 |
| CGATCCGC | -0.215 |
| AACGTGGC | -0.104 |
| CAGGAGTC | 0.219 |
| CACAAGGC | -0.161 |
| CCTGGCTA | 0.0412 |
| AGAAATGG | 0.0246 |
| CCCTCAGG | -0.178 |
| ATGATGTC | 0.00482 |
| ACTGAAAT | 0.00378 |
| AGTTACTG | 0.0791 |
| AATGTCCG | -0.0101 |
| AGACTGGA | 0.224 |
| CACATGTG | -0.129 |
| CATCAACA | 0.015 |
| TGAGCTCA | -0.277 |
| ATGAAGAC | -0.102 |
| TAGCTGGA | 0.129 |
| AACTTTAA | 0.0795 |

| Sequence | PBM E-score |
| --- | --- |
| AAGGATCA | -0.0152 |
| GAATGTCC | -0.215 |
| ATGCGTGC | 0.0119 |
| AAAAATTA | 0.2 |
| CTGTCACA | -0.12 |
| GAAAGCCA | -0.0646 |
| ATGAGTTG | 0.0239 |
| CTCGTGGA | -0.0317 |
| GAGCGTGA | -0.105 |
| ATAAGGCA | 0.0435 |
| CGTACGCC | 0.0348 |
| GGGAGCTA | 0.00402 |
| CGAAAAGA | 0.0924 |
| CAATCAAG | 0.00335 |
| CACAGTTA | 0.119 |
| AAATCGCC | 0.062 |
| ATGTAGAA | -0.0324 |
| CGTACACA | 0.0337 |
| TGCGATAA | 0.0278 |
| ATGTCACC | 0.168 |
| CGTGTCTC | -0.178 |
| AAGCAGAT | -0.03 |
| ACGATACC | 0.131 |
| CGTTGCTC | -0.0455 |
| ATCCCGCG | 0.107 |

| Sequence | PBM E-score |
| --- | --- |
| GTTGTAGA | -0.0206 |
| ACTAGGCG | 0.199 |
| CGAATCGA | 0.137 |
| TGCAAACA | -0.126 |
| AACGGTGC | 0.139 |
| ACTGGGCC | -0.135 |
| CGAACCTC | -0.0886 |
| CAGCCTTA | -0.0585 |
| AAGTGGAA | 0.41 |
| CAATAATA | 0.00699 |
| CCCAAACC | 0.118 |
| ACCGCACC | 0.0134 |
| AACCATAA | 0.167 |
| TAGAAGCA | 0.0346 |
| AGGTGTTG | -0.0564 |
| TCATTCAA | 0.00751 |
| GGAGTGAA | 0.0541 |
| GTGTCGGA | 0.0513 |
| AGCTGAAG | -0.0873 |
| AGCACCGC | -0.0299 |
| AATCAAGG | -0.0103 |
| CTAGCAGA | -0.199 |
| CCCAAGTA | 0.0271 |
| CCCGGCAC | -0.0516 |
| GTACGCAA | -0.126 |

| Sequence | PBM E-score |
| --- | --- |
| CTGAGGGA | -0.211 |
| GCAGTTTA | 0.0599 |
| GTCAAGAA | 0.0018 |
| ATTGTGAC | 0.0102 |
| ATTTAAAA | 0.115 |
| AGAGTCTA | -0.0227 |
| CGCACACG | -0.00991 |
| GGGACCTA | 0.0741 |
| CGCTTTGC | -0.0972 |
| GTCTTCTA | -0.0212 |
| CACACGCC | 0.029 |
| CTAATTCC | 0.134 |
| AGTCACGG | -0.224 |
| AGGCGCAT | 0.0287 |
| ATCGAGAA | 0.178 |
| CACCTAAA | 0.266 |
| AAGCAGTA | 0.00562 |
| GCGTAGCC | -0.123 |
| CATGGTCA | -0.159 |
| CGAGATCC | -0.00997 |
| ACAAGCTG | 0.106 |
| AGGAGGTG | -0.0889 |
| CAAGCGCG | -0.0724 |
| GGCTAATA | 0.0287 |
| AGAAAGGG | -0.0747 |

| Sequence | PBM E-score |
| --- | --- |
| AGACTTGC | -0.18 |
| CGGATCCC | 0.341 |
| ACGCGTCC | 0.292 |
| AGCATTTA | 0.151 |
| CTGGCAGC | 0.386 |
| CTGGCCGA | -0.156 |
| ACAATGGC | -0.103 |
| GTACTGAA | -0.0112 |
| ACCGCCAT | -0.181 |
| AAGCCCAC | 0.0131 |
| CTTCGCCA | -0.0437 |
| CAATCATC | -0.0981 |
| GCGAGACA | -0.115 |
| AGTTCTGG | 0.0689 |
| CAATCATG | -0.0813 |
| ACCATGCA | 0.146 |
| GATTCGCA | 0.267 |
| CCTAAGGC | -0.124 |
| GACCCGAA | 0.0929 |
| GATAGGCC | -0.131 |
| GATTACCC | -0.306 |
| CAAAATCG | -0.0703 |
| ACGTCCCG | 0.0111 |
| CAGCAGAG | 0.0348 |
| AAGCGTCC | 0.323 |

| Sequence | PBM E-score |
| --- | --- |
| AGATATGC | -0.127 |
| CTTTACAC | 0.122 |
| GCTGGCCC | -0.178 |
| ATAACTCC | -0.0323 |
| AAATCCTC | -0.28 |
| TCGTTGAA | -0.127 |
| ACTTGTGC | -0.114 |
| CAAAGAGA | -0.055 |
| AAAAGTCA | -0.058 |
| CGCTAAAG | -0.0429 |
| AAGGTACA | 0.0281 |
| ATATTCCA | 0.17 |
| CATCCCAG | -0.0404 |
| ATGGTCAA | -0.115 |
| CGCAGACA | -0.0735 |
| CATAGTGA | -0.135 |
| GGATGCCC | 0.464 |
| ACCGAGCT | -0.0772 |
| CTAGGTAC | -0.0583 |
| CATATACA | 0.0529 |
| GCGCTGAC | -0.0643 |
| CTATTTTC | 0.052 |
| CGAGGAAA | 0.0716 |
| ATGACGGC | 0.0302 |
| CTGCACCC | 0.0757 |

| Sequence | PBM E-score |
| --- | --- |
| ACGATTGC | -0.0169 |
| ACTTAATC | -0.026 |
| GTCAGTCA | 0.0683 |
| CTGTATAC | 0.0309 |
| GTCACCTA | -0.00909 |
| AGCCTAGG | -0.254 |
| ACCTTAAA | 0.156 |
| AATTCGGT | 0.177 |
| AGGTTTTC | 0.0618 |
| ACAGATAC | 0.0779 |
| GTACAGCA | -0.0358 |
| ATACACAT | 0.1 |
| GGCATCAC | -0.0242 |
| GGTATCAC | -0.165 |
| ATCGGTCA | -0.247 |
| CATTATCG | 0.0454 |
| CTGGTGAA | -0.0514 |
| ACGGAACC | 0.0697 |
| CTACGTAC | 0.0519 |
| ACAAGGAT | 0.00092 |
| GAATAATA | 0.185 |
| GACGGTTA | -0.0821 |
| CCGCTATC | 0.131 |
| CTCTGCAC | -0.0576 |
| AATACGCC | -0.0501 |

| Sequence | PBM E-score |
| --- | --- |
| AAAGCACT | -0.195 |
| GGATTTGA | -0.111 |
| CGTCCCCA | 0.109 |
| CCTATACA | 0.198 |
| CCATCGCC | -0.0991 |
| CACGGTGC | 0.131 |
| ACGGGGGA | -0.063 |
| ACGACCCG | -0.115 |
| GGGAATAA | 0.147 |
| ATAAAAAG | 0.128 |
| AAAGCGAC | 0.0124 |
| ATCGCATG | -0.36 |
| GCGAGCGA | 0.0461 |
| ACCCTCAG | -0.0384 |
| AATGTGGC | 0.13 |
| AAGATACT | 0.158 |
| AATAGATT | 0.0676 |
| CGATTAAG | 0.0904 |
| CACCCTAG | 0.0455 |
